Source: publication PMC5892938
Some of the results follow. The source does not settle which construct or isoform was used.

Each sequence was assayed against GST-SBP-ILF3 (Homo sapiens) (UniProt Q12906) (assay: targeted RNA Bind-n-Seq). Conditions: RBNS binding buffer: 25 mM Tris pH 7.5, 150 mM KCl, 3 mM MgCl2, 0.1% Tween, 0.5 mg/mL BSA, 1 mM DTT; 27 nM protein, 750 pM RNA pool; temperature not stated; high values mean tight binding; sequences stand for … in GGGUAAAAGCGAGGUGAA…CGGGACAAGUAUUAUGGG.

| Sequence | binding signal (log2 fold change) |
| --- | --- |
| UUUUUUUUUUGAGACCGAAACGGUCUCCUA [tttttgagapaired] | 0.266 |
| UUUUUUUUUUGAGACCGAUCCGGUCUUCUA [tttttgagapaired] | 0.32 |
| GUGGUGUGUGUUGGAAUCUAACACAUACCA [gtspaired] | -0.578 |
| UUUUUUUUUUGAGAGCGGUGCGCUCUUCUA [tttttgagapaired] | 0.36 |
| UUUUUUUUUUGAGACUGAAGCAGUUUCCUA [tttttgagapaired] | 0.333 |
| GUGUGUGGUGUUGGCCUCUAACACCGCAUA [gtspaired] | -0.489 |
| UUUUUUUUUUGAGACGGCCACCGUCUUCUG [tttttgagapaired] | 0.923 |
| UUUUUUUUUUGAGACCGGAGCGGUCUCCUG [tttttgagapaired] | 0.778 |
| UUUUUUUUUUGAGACGGGAGCUGUCUCCUA [tttttgagapaired] | 0.848 |
| GUGUGGUGUGUUGGUCCCUAACACACUACG [gtspaired] | -0.488 |
| GUGUGUUGUGUUGGCAUCUAACACAACGCG [gtspaired] | -0.486 |
| GUUGGUGGUGUUGGCUCCUAACACCGCCGA [gtspaired] | -0.563 |
| UUUUUUUUUUGAGAGUGCUACAUUCUCCUA [tttttgagapaired] | 0.148 |
| UUUUUUUUUUGAGAUGGGUACCAUCUCCUG [tttttgagapaired] | 0.279 |
| UUUUUUUUUUGAGACGGAGGCCGUCUUCUA [tttttgagapaired] | 0.657 |
| UUUUUUUUUUGAGACGGACUCCGUUUCCAG [tttttgagapaired] | 0.315 |
| GGUGGUUGUGUUGGACUCUAACACAAUCGC [gtspaired] | -1.03 |
| UUUUUUUUUUGAGACUGUGUCAGUCUCCGG [tttttgagapaired] | 0.56 |
| UUUUUUUUUUGAGAGCGGGGCGCUCUCCGG [tttttgagapaired] | 0.375 |
| UUUUUUUUUUGAGAUGGAGACCAUCUCCAG [tttttgagapaired] | 0.349 |
| UUUUUUUUUUGAGAGUGCAACAUUCUCCUA [tttttgagapaired] | 0.0503 |
| UUUUUUUUUUGAGACCGAGUCGGUCUCCUA [tttttgagapaired] | 0.139 |
| GUGUGUUGUGUUGGAGCCUAACACAGCGCA [gtspaired] | -0.461 |
| UUUUUUUUUUGAGAGGGGUACCCUUUCCAG [tttttgagapaired] | 0.55 |
| UUUUUUUUUUGAGACCGGAUCGGUCUCCUA [tttttgagapaired] | 0.163 |
| UUUUUUUUUUGAGAUGGGCACCAUCUCCGG [tttttgagapaired] | 0.394 |

| Sequence | binding signal (log2 fold change) |
| --- | --- |
| GUGGUGUGUGUUGGAACCUAACACACGCCG [gtspaired] | -1.15 |
| UUUUUUUUUUGAGAUGGGAGCCAUCUCCUA [tttttgagapaired] | 0.358 |
| UUUUUUUUUUGAGAUCGGCACGAUCUCCUG [tttttgagapaired] | 0.538 |
| UUUUUUUUUUGAGACUGUGACAGUCUUCUA [tttttgagapaired] | 0.515 |
| UUUUUUUUUUGAGAUGGAAACCAUCUUCUA [tttttgagapaired] | -0.0915 |
| GUUGUGUGUGUUGGACUCUAACACACGCGA [gtspaired] | -0.588 |
| UUUUUUUUUUGAGACGGACGCCGUCUCCAG [tttttgagapaired] | 0.576 |
| UUUUUUUUUUGAGACCGUCACGGUCUCCUA [tttttgagapaired] | 0.494 |
| UUUUUUUUUUGAGAUGGGAACUAUCUUCUA [tttttgagapaired] | 0.24 |
| UUUUUUUUUUGAGAUCGAGACGAUUUCCAG [tttttgagapaired] | 0.187 |
| GUGUGUGGUGUUGGCUUCUAACACCAUAUA [gtspaired] | -0.746 |
| UUUUUUUUUUGAGAACGACGCGUUCUCCAG [tttttgagapaired] | 0.37 |
| GUGGUGUGUGUUGGAAUCUAACACACAUCG [gtspaired] | -0.962 |
| UUUUUUUUUUGAGACGGGAUCUGUCUCCAG [tttttgagapaired] | 0.511 |
| UUUUUUUUUUGAGAUGGUAUCCAUCUCCGG [tttttgagapaired] | 0.0341 |
| UUUUUUUUUUGAGACCGGACCGGUCUCCAG [tttttgagapaired] | 0.937 |
| GUGUGUGGUGUUGGAUCCUAACACCAUACG [gtspaired] | -0.745 |
| GUGUGUUGUGUUGGAUUCUAACACAGCGCG [gtspaired] | -0.59 |
| UUUUUUUUUUGAGACCGGUUCGGUCUUCUA [tttttgagapaired] | 0.418 |
| GUGGUGUGUGUUGGCUCCUAACACACAUCA [gtspaired] | -0.217 |
| GUGUGGUGUGUUGGACCCUAACACACCGCA [gtspaired] | -0.203 |
| UUUUUUUUUUGAGACUGGGACAGUCUCCUA [tttttgagapaired] | 0.119 |
| UUUUUUUUUUGAGACGGCAACCGUUUCCGG [tttttgagapaired] | 0.654 |
| GUUGGUGGUGUUGGUCCCUAACACCAUCAA [gtspaired] | -0.575 |
| UUUUUUUUUUGAGACGGGCGCCGUCUCCGG [tttttgagapaired] | 0.632 |
| UUUUUUUUUUGAGAGCGAGACGCUCUCCAG [tttttgagapaired] | -0.0979 |

| Sequence | binding signal (log2 fold change) |
| --- | --- |
| UUUUUUUUUUGAGAGGGCGCCCCUCUCCAG [tttttgagapaired] | 0.764 |
| UUUUUUUUUUGAGAGCGGUGCGUUCUCCAG [tttttgagapaired] | 0.389 |
| UUUUUUUUUUGAGACCGUUUCGGUCUCCGG [tttttgagapaired] | 0.313 |
| UUCUCUCUUCCUCCAGGGGAGGAGGAGGGA [ctspaired] | -0.16 |
| GUGUGGUGUGUUGGCGCCUAACACAUCGCA [gtspaired] | -0.538 |
| UUUUUUUUUUGAGAGGGUACCCCUCUCCAG [tttttgagapaired] | 0.225 |
| UUUUUUUUUUGAGAUGGCAGCUAUCUCCGG [tttttgagapaired] | 0.466 |
| UUUUUUUUUUGAGACGGAAGCUGUCUCCUA [tttttgagapaired] | 0.653 |
| GUGGUUGGUGUUGGCACCUAACACCGACCG [gtspaired] | -0.467 |
| UUUUUUUUUUGAGAACGAAACGUUCUCCUA [tttttgagapaired] | -0.304 |
| UUUUUUUUUUGAGAGCGGGACGCUCUCCGG [tttttgagapaired] | 0.0594 |
| GUGUGUUGUGUUGGUAUCUAACACAGCGCG [gtspaired] | -0.814 |
| GUGUGUUGUGUUGGCGUCUAACACAGCACA [gtspaired] | -0.428 |
| UUUUUUUUUUGAGAUCGAAGCGAUCUCCUA [tttttgagapaired] | -0.189 |
| GUGUGGUGUGUUGGAGUCUAACACAUCACG [gtspaired] | -0.787 |
| GUGUGGUGUGUUGGCAUCUAACACAUCACG [gtspaired] | -1.02 |
| UUUUUUUUUUGAGACGGCAUCCGUCUCCGG [tttttgagapaired] | 0.654 |
| UUUUUUUUUUGAGAUCGAAUCGAUCUCCUG [tttttgagapaired] | 0.16 |
| GUGUGGUGUGUUGGCGCCUAACACACCGCA [gtspaired] | -0.315 |
| UUUUUUUUUUGAGAUGGACUCUAUCUCCAG [tttttgagapaired] | 0.188 |
| UUUUUUUUUUGAGACGGAUACCGUCUCCAG [tttttgagapaired] | 0.421 |
| UUUUUUUUUUGAGACGGACCCCGUCUCCUA [tttttgagapaired] | 0.82 |
| UUUUUUUUUUGAGAUCGACGCGAUCUCCUA [tttttgagapaired] | 0.335 |
| GUGUGUGGUGUUGGCGUCUAACACCACGCG [gtspaired] | -0.56 |
| UUUUUUUUUUGAGAGGGUAUCCUUCUCCAG [tttttgagapaired] | 0.0112 |
| UUUUUUUUUUGAGACGGGAGCCGUCUUCUG [tttttgagapaired] | 0.438 |

| Sequence | binding signal (log2 fold change) |
| --- | --- |
| UUUUUUUUUUGAGACGGAACCCGUCUCCAG [tttttgagapaired] | 0.343 |
| GUGUGUUGUGUUGGCCUCUAACACAGCGCG [gtspaired] | -0.734 |
| UUUUUUUUUUGAGACGGAGACCGUCUUCUG [tttttgagapaired] | 0.716 |
| UUUUUUUUUUGAGAUGGGUGCCAUUUCCGG [tttttgagapaired] | 0.727 |
| UUUUUUUUUUGAGACUGGUACAGUCUCCAG [tttttgagapaired] | 0.361 |
| GUGGUGUGUGUUGGAGUCUAACACACAUCA [gtspaired] | -0.581 |
| UUUUUUUUUUGAGAUCGUAACGAUCUCCUA [tttttgagapaired] | 0.205 |
| UUUUUUUUUUGAGAACGGGUCGUUCUCCAG [tttttgagapaired] | 0.411 |
| UUUUUUUUUUGAGACUGAGGCAGUUUCCUA [tttttgagapaired] | 0.572 |
| GGUGGUUGUGUUGGAGCCUAACACAGCUAC [gtspaired] | -0.701 |
| UUUUUUUUUUGAGAGCGAACCGCUCUCCUG [tttttgagapaired] | 0.0868 |
| GUGUGGUGUGUUGGCAUCUAACACACUACG [gtspaired] | -0.779 |
| UUUUUUUUUUGAGAUCGGGACGAUCUUCUA [tttttgagapaired] | 0.321 |
| UUUUUUUUUUGAGAGGGCUCCCCUCUCCGG [tttttgagapaired] | 0.502 |
| GGUGUGUGUGUUGGUCCCUAACACAUACGC [gtspaired] | -0.383 |
| UUUUUUUUUUGAGAUCGGAGCGAUCUCCGG [tttttgagapaired] | 0.457 |
| UUUUUUUUUUGAGAGGGCUCCCCUUUCCGG [tttttgagapaired] | 0.689 |
| UUUUUUUUUUGAGACGGAUACCGUCUCCUA [tttttgagapaired] | 0.0795 |
| GUGUGUGGUGUUGGUGUCUAACACCGCGCG [gtspaired] | -0.675 |
| UUUUUUUUUUGAGAGGGGCGCCCUCUCCUA [tttttgagapaired] | 0.667 |
| UUUUUUUUUUGAGACUGGGACAGUCUCCGG [tttttgagapaired] | 0.237 |
| UUCCUUCUUCCUCCAGGGGAGGGAGAGGGA [ctspaired] | -0.484 |
| GUGGUGUGUGUUGGUAUCUAACACACGCCG [gtspaired] | -0.543 |
| UUUUUUUUUUGAGAAGGGAUCCUUCUCCGG [tttttgagapaired] | -0.134 |
